# Screen size: about 410,000 compounds; about 5,000 (1.2%) were called active. Inconclusive results, whose numbers are uncertain, are shown with a selection of clear calls. Calls come from the whole dose curve; as a rule, active = well fitted inhibition curve with a large enough effect; inconclusive = small, poorly fitted or top-dose-only effect; inactive = no such curve, though single readings can be large or run the other way. Potencies beside an inconclusive call are fits to weak or partial responses and may not hold up.
# Experiment: qHTS for Inhibitors of TGF-b; note: nearly all actives have a fitted effect of over 65% in size
# Settings: HepG2 CAGA-GFP TGF-b/SMAD3 reporter, GFP fluorescence, 18 h, TGF-beta stimulated, 500 pg/mL final; series mostly up to 46.1 µM; activity, negative = inhibition: at the top concentration
# How it was run: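 First, reporter cells (HEPG2 CAGA-GFP) rested 2 h at 37 degrees C. Next, compounds were pinned in and TGF-beta added to 500 pg/mL final. After 18 h, GFP was imaged per cell and summed per well.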
# % is set by controls: 0 for no effect and ±100 for the full control effect; potency is the fitted concentration of half-maximal effect; tags give direction and shape of the fitted curve.
Compound,"activity, negative = inhibition",Potency
Cc1ccccc1Cn1c2ccccc2c2cnn(CC(=O)NCC(C)c3ccccc3)c(=O)c21 (stereo unspecified),inactive: 16.7%,–
CC(=O)N1N=C(c2ccc(NS(=O)(=O)c3ccccc3)cc2)CC1c1ccco1 (stereo unspecified),–,"inconclusive: 25.1 µM [inhibitor, single point]"
COc1ccc(CN2CCN(CCCCOc3ccc(Cl)cc3)CC2)c(OC)c1OC,–,"inconclusive: 15.8 µM [inhibitor, partial curve, poor fit]"
O=[N+]([O-])c1ccc(S(=O)(=O)Nc2ccc3c(c2)OCCO3)cc1,inactive: -5.43%,–
O=C(Nc1cccc(C(=O)O)c1)/C(=C\c1ccccc1)NC(=O)c1ccco1,inactive: 1.61%,–
Cc1ccc(C(=O)/C=C/C(=O)O)cc1,–,"inconclusive: 35.5 µM [inhibitor, single point]"
Cc1ccc(S(=O)(=O)N2CCN(C(=O)COC(=O)COc3ccc(Cl)c(C)c3)CC2)c(C)c1,–,"inconclusive: 0.316 µM [inhibitor, partial curve, poor fit]"
COc1ccc(-n2nnnc2SCC(=O)Nc2cccc(O)c2)cc1,–,"inconclusive: 35.5 µM [inhibitor, single point]"
CCN(c1ccccc1)S(=O)(=O)c1ccc(Cl)c(C(=O)NC2CCN(Cc3ccccc3)CC2)c1,–,"inconclusive: 12.6 µM [inhibitor, partial curve]"
CC(C)CCN1CCN(CC(c2ccccc2)c2ccccc2)CC1CCO (stereo unspecified),–,"inconclusive: 3.98 µM [inhibitor, single point]"
Cc1ccc(Cn2nc(C)c(NC(=O)CCCn3nc(C)c([N+](=O)[O-])c3C)c2C)cc1,–,"inconclusive: 35.5 µM [inhibitor, partial curve, poor fit]"
COc1ccc(CCNc2oc(-c3ccc(OC)c(OC)c3)nc2C#N)cc1,inactive: -1.75%,–
Cc1cc(C(=O)N/N=C/c2cc(N=Nc3ccccc3)ccc2O)n[nH]1,–,"inconclusive: 8.91 µM [inhibitor, partial curve, poor fit]"
O=C(Nc1cc(Cl)cc(Cl)c1)c1ccc(F)c(S(=O)(=O)N2CCCCCC2)c1,–,"inconclusive: 5.62 µM [inhibitor, single point]"
COc1ccc(CCNC(=O)c2cc(Sc3cccc(Cl)c3)nc3ccccc23)cc1OC,inactive: -54.9%,–
COc1cc2ccccc2cc1C(=O)N(CCN(C)C)c1nc2ccc(Br)cc2s1,–,"inconclusive: 20 µM [inhibitor, single point]"
CCOC(=O)c1cnc2ccc(C(=O)OC)cc2c1Nc1ccc2c(c1)OCCO2,inactive: -8.41%,–
COc1cc(-c2nnc(CSc3nnc(Nc4ccc(C(C)C)cc4)s3)o2)cc(OC)c1OC,–,"inconclusive: 4.47 µM [inhibitor, full curve, poor fit]"
O=C(CN1C(=O)NC2(CCCC2)C1=O)OCCOc1ccc(Cl)cc1Cl,–,"inconclusive: 17.8 µM [inhibitor, single point]"
COc1cccc(C(=O)N2c3ccccc3Sc3ccccc32)c1,–,"inconclusive: 35.5 µM [inhibitor, partial curve, poor fit]"
CCOc1ccc2nc(N3CCCC(C(=O)Nc4ccc(Br)c(C)c4)C3)sc2c1 (stereo unspecified),inactive: 48.6%,–
COc1ccccc1N1CCN(S(=O)(=O)c2ccc(F)c(C(=O)Nc3ccc(C)c(F)c3)c2)CC1,inactive: 0%,–

Compound,"activity, negative = inhibition",Potency
O=C(CCCOc1ccc(Cl)cc1Cl)N/N=C/c1ccc(Cl)cc1,–,"inconclusive: 31.6 µM [inhibitor, single point]"
Cc1cc(C)nc(SC2CCCCC2NS(=O)(=O)c2ccc(Cl)cc2)n1 (stereo unspecified),–,"inconclusive: 35.5 µM [inhibitor, single point]"
Cc1ccc(C(=O)CSc2nccn2-c2ccccc2)cc1,–,"inconclusive: 35.5 µM [inhibitor, single point]"
COc1cc(C)c(NC(=O)COc2cccc3c2OC(C)(C)C3)cc1OC,inactive: -18.2%,–
Cc1ccc(NC(=O)C2CCCN2S(=O)(=O)c2cccc3cccnc23)cc1 (stereo unspecified),–,"inconclusive: 3.98 µM [inhibitor, partial curve, poor fit]"
CC1CN(C(=O)N2CCC(C(=O)NC3CCCCCC3)CC2)c2cc(Cl)ccc2O1 (stereo unspecified),–,"inconclusive: 11.2 µM [inhibitor, partial curve, poor fit]"
Cc1cccc(NC(=O)CCn2nc(C)cc2C)c1,–,"inconclusive: 11.2 µM [inhibitor, partial curve, poor fit]"
N=C1S/C(=C\c2cccc3ccccc23)C(=O)N1c1ccc(F)cc1,inactive: -13.5%,–
CCCCn1c(N)c(N(CC(C)C)C(=O)C2CCN(c3ncnc4sc(C)c(C)c34)CC2)c(=O)[nH]c1=O,–,"inconclusive: 3.55 µM [inhibitor, full curve, poor fit]"
CCCCN(C)S(=O)(=O)c1cc2c(cc1Br)CCN2C(=O)C1CC1,inactive: -1.78%,–
CC1=C(C(=O)N2CCCCCC2)CC(CC(=O)NCCCN(C)C)C(=O)N1Cc1ccccc1 (stereo unspecified),inactive: -0.118%,–
CCN1CCN(c2ccc(S(=O)(=O)N3CCOCC3)cc2NC(=O)C2CCC(C(C)(C)C)CC2)CC1 (stereo unspecified),–,"inconclusive: 31.6 µM [inhibitor, single point]"
CCC(=O)NC1=C(Cl)C(=O)C(NC(=O)CC)=C(Cl)C1=O,–,"inconclusive: 20 µM [inhibitor, partial curve, poor fit]"
Cc1ccc(C(=O)CC2(O)C(=O)N(CCc3ccccc3)c3ccc(Br)cc32)o1 (stereo unspecified),–,"inconclusive: 12.6 µM [inhibitor, partial curve, poor fit]"
CC1CCN(CC(O)COC2CCC(C(C)(C)C)CC2)CC1 (stereo unspecified),inactive: 9.98%,–
COc1cc2c(cc1OC)C(c1ccc(Cl)cc1)N(c1ccc(C)c(F)c1)C(=O)C2 (stereo unspecified),–,"inconclusive: 17.8 µM [inhibitor, single point]"
CSCCC(NC(=O)c1cc([N+](=O)[O-])cc([N+](=O)[O-])c1)c1nc2ccccc2[nH]1 (stereo unspecified),–,"inconclusive: 35.5 µM [inhibitor, single point]"
Cc1cc(C)c(C)c(S(=O)(=O)N2CCN(C(=S)NCC3CCCO3)CC2)c1C (stereo unspecified),–,"inconclusive: 35.5 µM [inhibitor, single point]"
NC(=O)CC1Nc2cccc3cccc(c23)NC1=O (stereo unspecified),–,"inconclusive: 3.16 µM [inhibitor, single point]"
FC(F)(F)c1ccccc1/C=N/N1CCN(Cc2ccccc2)CC1,–,"inconclusive: 7.08 µM [inhibitor, partial curve]"
COc1ccccc1NC(=O)CN(c1ccc(C(C)C)cc1)S(=O)(=O)c1c(C)noc1C,inactive: -21.2%,–
CCC1Oc2ccccc2N(CC(=O)Nc2ccccc2OC)C1=O (stereo unspecified),–,"inconclusive: 1.12 µM [inhibitor, full curve]"

Compound,"activity, negative = inhibition",Potency
Cc1ccc(NC(=O)CSCC(=O)N2c3ccccc3CCc3ccccc32)cc1,–,"inconclusive: 25.1 µM [inhibitor, single point]"
COC(=O)Cc1[nH]nc2c1C1(C(=O)N(Cc3ccccc3)c3ccccc31)C(C#N)=C(N)O2 (stereo unspecified),–,"inconclusive: 5.62 µM [inhibitor, single point]"
Cc1ccc([N+](=O)[O-])cc1NC(=O)CCCOc1ccccc1,–,"inconclusive: 1.58 µM [inhibitor, partial curve]"
CCN(CC)c1ccc(S(=O)(=O)N2CCOCC2)cc1NC(=O)CN1CCN(Cc2ccccc2)CC1,–,"inconclusive: 15.8 µM [inhibitor, single point]"
COc1ccc(C(CNC(=O)c2oc3ccccc3c2C)N2CCCC2)cc1 (stereo unspecified),inactive: 0%,–
CCc1ccc(Nc2cc(C)nc3nc(Cc4ccc(Cl)cc4)nn23)cc1,–,active: 12.6 µM
CC(=O)NCCc1nc2ccccc2n1Cc1cc(C)ccc1C,inactive: -23.4%,–
CCCCNC(=S)NCc1ccc2[nH]c3c(c2c1)CCCC3,–,"inconclusive: 35.5 µM [inhibitor, single point]"
Cc1nc(C)c(-c2csc(Nc3ccc(Cl)cn3)n2)s1,–,"inconclusive: 35.5 µM [inhibitor, single point]"
COc1ccccc1-c1sc2ccccc2c1-c1ccc(O)cc1,–,active: 11.2 µM
Cc1cccc(NC(=O)CSc2nc3ccc(NC(=O)c4cccs4)cc3s2)c1,–,"inconclusive: 15.8 µM [inhibitor, single point]"
O=C(OCc1ccccc1)C1CCCN1C(=O)c1ccccc1[N+](=O)[O-] (stereo unspecified),–,"inconclusive: 11.2 µM [inhibitor, single point]"
O=C(NOC(=O)c1ccccc1)c1ccccc1,inactive: -7.3%,–
COc1ccc(C2c3c(n(C)c4ccccc34)C(=O)N2CC(=O)Nc2ccc(Cl)cc2)cc1 (stereo unspecified),–,active: 2.51 µM
CCOC(=O)c1c(C)oc2ncnc(NCCc3ccccc3)c12,–,"inconclusive: 15.8 µM [inhibitor, single point]"
O=C(CCC1CCCN(C(=O)c2cc3ccccc3o2)C1)NCc1ccc(F)c(F)c1 (stereo unspecified),–,"inconclusive: 25.1 µM [inhibitor, single point]"
CC(=O)Nc1cc(-c2ccc(N3CCN(C)CC3)cc2)cn2c(-c3ccc(F)cc3)cnc12,–,"inconclusive: 12.6 µM [inhibitor, single point]"
N#CC(Sc1ccccn1)c1ccc(Cl)cc1 (stereo unspecified),inactive: -6.26%,–
N#CC1=C(N)Oc2ccccc2C12C(=O)Nc1n[nH]c(-c3ccccc3)c12 (stereo unspecified),–,"inconclusive: 6.31 µM [inhibitor, single point]"
O=C1Nc2cc(Cl)c(Cl)cc2N(O)N1c1cc(Cl)cc(Cl)c1,–,"inconclusive: 35.5 µM [inhibitor, single point]"
CCN(CC)c1ccc(NS(=O)(=O)c2ccc3c(c2)CCCN3C(C)=O)c(C)c1,–,"inconclusive: 22.4 µM [inhibitor, partial curve, poor fit]"
CC(C)(C)C(=O)CSc1ncnc2c1cnn2Cc1ccccc1,inactive: -1.06%,–

# Reference: PubChem BioAssay AID588855 (National Center for Advancing Translational Sciences (NCATS), 2011)
